Experimental data taken from the supplement of paper PMC6089552.
In all, about 3,200 compounds went through this assay and about 300 (9.4%) showed activity. This is a selection; strong and weak results do not stand in their true shares.

Test system: A673/TR/shEF
Test: cell viability (LOESS-normalised, relative to median of negative controls) (log2 ratio); higher = more viable cells (less compound effect), active = hit call of the paper (over 3 MAD below the median)
Details: treatment time: 72 h
Method in brief: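 Viability of A673/TR/shEF Ewing sarcoma cells was determined by CellTiter-Glo luminescence. The cells, at 1,500 per well in 384-well plates, were grown with or without doxycycline from 24 h before compound addition to switch on EWS-FLI1 shRNA knockdown, then exposed for three days to library compounds at two or more concentrations or to DMSO controls. Signals were LOESS-corrected plate by plate, normalised to the negative-control median and log2-transformed.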

[1] = 0.25 µM, library screen: screen1, EWS-FLI1 expression: high (no doxycycline)
[2] = 0.25 µM, library screen: screen1, EWS-FLI1 expression: low (doxycycline-induced shRNA knockdown)
[3] = 2.5 µM, library screen: screen1, EWS-FLI1 expression: high (no doxycycline)
[4] = 2.5 µM, library screen: screen1, EWS-FLI1 expression: low (doxycycline-induced shRNA knockdown)
[5] = 0.103 µM, library screen: screen3, EWS-FLI1 expression: high (no doxycycline)
[6] = 0.103 µM, library screen: screen3, EWS-FLI1 expression: low (doxycycline-induced shRNA knockdown)
[7] = 0.25 µM, library screen: screen2, EWS-FLI1 expression: high (no doxycycline)
[8] = 0.25 µM, library screen: screen2, EWS-FLI1 expression: low (doxycycline-induced shRNA knockdown)
[9] = 0.308 µM, library screen: screen3, EWS-FLI1 expression: high (no doxycycline)
[10] = 0.308 µM, library screen: screen3, EWS-FLI1 expression: low (doxycycline-induced shRNA knockdown)
[11] = 0.926 µM, library screen: screen3, EWS-FLI1 expression: high (no doxycycline)
[12] = 0.926 µM, library screen: screen3, EWS-FLI1 expression: low (doxycycline-induced shRNA knockdown)
[13] = 2.5 µM, library screen: screen2, EWS-FLI1 expression: high (no doxycycline)
[14] = 2.5 µM, library screen: screen2, EWS-FLI1 expression: low (doxycycline-induced shRNA knockdown)
[15] = 2.8 µM, library screen: screen3, EWS-FLI1 expression: high (no doxycycline)
[16] = 2.8 µM, library screen: screen3, EWS-FLI1 expression: low (doxycycline-induced shRNA knockdown)
[17] = 8.3 µM, library screen: screen3, EWS-FLI1 expression: high (no doxycycline)
[18] = 8.3 µM, library screen: screen3, EWS-FLI1 expression: low (doxycycline-induced shRNA knockdown)
[19] = 25 µM, library screen: screen3, EWS-FLI1 expression: high (no doxycycline)
[20] = 25 µM, library screen: screen3, EWS-FLI1 expression: low (doxycycline-induced shRNA knockdown)

Measured: cell viability (log2)

Cc1cn2c(=O)c3ccccc3nc2nc1Nc1ccccc1C(=O)O
inactive: [1] 0.138 | [2] 0.0987 | [3] 0.0749 | [4] 0.0532

COc1ccc2cc1Oc1ccc(cc1)C[C@H]1c3cc(c(OC)cc3CCN1C)Oc1c(OC)c(OC)cc3c1[C@H](C2)N(C)CC3
inactive: [1] 0.12 | [2] 0.189 | [3] 0.0802 | [4] 0.184

O=C1CCc2cc(OCCCCc3nnnn3C3CCCCC3)ccc2N1
inactive: [5] 0.129 | [6] 0.114 | [7] 0.102 | [8] 0.07 | [9] 0.102 | [10] 0.0804 | [11] 0.0992 | [12] 0.0606 | [13] 0.106 | [14] 0.0622 | [15] 0.092 | [16] 0.0616 | [17] 0.0747 | [18] -0.00245 | [19] 0.072 | [20] 0.113

CCS(=O)(=O)CCn1c([N+](=O)[O-])cnc1C
inactive: [1] 0.0677 | [2] 0.0867 | [3] 0.12 | [4] 0.0978

CCCCOc1cc(C(=O)NCCN(CC)CC)c2ccccc2n1
inactive: [1] 0.151 | [2] 0.163 | [3] 0.226 | [4] 0.143

O=P(O)(O)C(Cl)(Cl)P(=O)(O)O
inactive: [7] 0.206 | [8] 0.0911 | [13] 0.127 | [14] 0.1

CCN1C(=O)/C(=C\c2cn(CCC#N)nc2-c2ccc(F)cc2)SC1=S
inactive: [1] 0.0868 | [2] 0.118 | [3] 0.107 | [4] -0.0141

CC(C)(C)OC(=O)C(C)(N)c1ccc(Cl)cc1 (stereo not drawn)
inactive: [7] 0.157 | [8] 0.0841 | [13] 0.151 | [14] 0.141

CC1=C(C(=O)OC2CCCC2)C(c2coc3ccccc3c2=O)C2=C(CC(C)(C)CC2=O)N1 (stereo not drawn)
inactive: [1] 0.0783 | [2] 0.0738 | [3] 0.145 | [4] 0.0146

C=C1C(=O)O[C@@H]2C[C@@]3(C)CCC[C@H](C)C3=C[C@H]12
inactive: 0.025 µM, library screen: screen2, EWS-FLI1 expression: high (no doxycycline) 0.148 | 0.025 µM, library screen: screen2, EWS-FLI1 expression: low (doxycycline-induced shRNA knockdown) 0.0581 | [1] 0.0724 | [2] -0.00207 | [7] 0.177 | [8] 0.0288 | [3] 0.152 | [4] 0.0584 | [13] 0.0901 | [14] 0.000642 | 25 µM, library screen: screen2, EWS-FLI1 expression: high (no doxycycline) -0.0554 | 25 µM, library screen: screen2, EWS-FLI1 expression: low (doxycycline-induced shRNA knockdown) -0.102

OCc1cc(C(O)CNCCCCCCOCCCCc2ccccc2)ccc1O (stereo not drawn)
inactive: [7] 0.0817 | [8] 0.00254 | [13] 0.125 | [14] 0.0466

C#CCN1C(C)=C(C(=O)OC)C(c2cccc([N+](=O)[O-])c2)C(C(=O)OCC)=C1C (stereo not drawn)
inactive: [7] 0.0669 | [8] 0.0672 | [13] 0.0849 | [14] 0.179

CC(=O)OCC(=O)[C@@]12N=C(C)O[C@@H]1C[C@H]1[C@@H]3CCC4=CC(=O)C=C[C@]4(C)[C@H]3[C@@H](O)C[C@@]12C
inactive: [5] 0.114 | [6] -0.0782 | [9] 0.116 | [10] 0.0535 | [11] 0.0398 | [12] 0.0599 | [15] 0.0606 | [16] 0.106 | [17] 0.109 | [18] 0.0725 | [19] 0.0446 | [20] 0.128

C=C1c2c(Cl)ccc(O)c2C(O)=C2C(=O)[C@]3(O)C(O)=C(C(N)=O)C(=O)[C@@H](N(C)C)[C@@H]3[C@@H](O)[C@H]12.O=C(O)c1cc(S(=O)(=O)O)ccc1O
active: [1] -0.128 | [3] -0.126
inactive: [2] 0.0882 | [4] 0.0927

CNCCC(Oc1ccc(C(F)(F)F)cc1)c1ccccc1 (stereo not drawn)
inactive: [5] 0.0657 | [6] 0.074 | [1] 0.199 | [2] 0.0653 | [7] 0.168 | [8] 0.061 | [9] 0.158 | [10] 0.0915 | [11] 0.127 | [12] 0.0928 | [3] 0.117 | [4] 0.121 | [13] 0.107 | [14] 0.0684 | [15] 0.106 | [16] 0.0514 | [17] 0.138 | [18] 0.0456 | [19] -0.00243 | [20] 0.102

Cc1nc2n(c(=O)c1CCN1CCC(c3noc4cc(F)ccc34)CC1)CCCC2
inactive: [5] 0.122 | [6] 0.0679 | [7] 0.0834 | [8] 0.0805 | [9] 0.0952 | [10] 0.118 | [11] 0.0358 | [12] 0.121 | [13] 0.16 | [14] 0.0814 | [15] 0.0509 | [16] 0.0563 | [17] 0.0819 | [18] 0.0474 | [19] 0.0967 | [20] 0.0689

C[C@@H](CN1CC(=O)NC(=O)C1)N1CC(=O)NC(=O)C1
inactive: [5] 0.159 | [6] 0.0755 | [9] 0.137 | [10] 0.0259 | [11] 0.142 | [12] 0.0579 | [15] 0.0229 | [16] 0.0634 | [17] 0.0222 | [18] 0.0663 | [19] 0.081 | [20] 0.122

CCCCCCCCCCCCC[N+](C)(C)Cc1ccccc1
inactive: [1] 0.0353 | [2] -0.0172 | [3] -0.0798 | [4] -0.173

CCCCCCCCCCC/C=C\C(C)(C)/C=C\CCCC(=O)O
inactive: [7] 0.118 | [8] 0.019 | [13] 0.139 | [14] 0.121

CCOc1ccccc1OCCN[C@H](C)Cc1ccc(OC)c(S(N)(=O)=O)c1
inactive: [5] 0.0525 | [6] 0.0533 | [9] 0.126 | [10] 0.0736 | [11] 0.134 | [12] 0.0525 | [15] 0.0143 | [16] 0.0472 | [17] -0.00938 | [18] 0.0323 | [19] 0.146 | [20] 0.0928

CCn1cc(C(=O)O)c(=O)c2cnc(N3CCCC3)nc21
inactive: [1] 0.172 | [2] 0.12 | [3] 0.205 | [4] 0.191

CC(C)[N+]1(C)C2CCC1CC(OC(=O)C(CO)c1ccccc1)C2 (stereo not drawn)
inactive: [5] 0.111 | [6] 0.106 | [1] 0.0971 | [2] 0.11 | [7] 0.19 | [8] -0.00964 | [9] 0.125 | [10] 0.138 | [11] 0.121 | [12] 0.138 | [3] 0.137 | [4] 0.0832 | [13] 0.099 | [14] 0.165 | [15] 0.117 | [16] 0.117 | [17] 0.127 | [18] 0.0463 | [19] 0.148 | [20] 0.129

O=S(=O)(O)CCS
inactive: [5] 0.0839 | [6] -0.0167 | [1] 0.0837 | [2] 0.0671 | [9] 0.0789 | [10] 0.105 | [11] 0.0779 | [12] 0.129 | [3] 0.142 | [4] 0.117 | [15] 0.0725 | [16] 0.0973 | [17] 0.122 | [18] 0.0634 | [19] 0.0823 | [20] 0.116

O[C@H]1[C@H]2c3cc4c(cc3CN3CCC(=C[C@@H]1O)[C@H]23)OCO4
inactive: [1] 0.0121 | [2] 0.0722 | [3] 0.0564 | [4] -0.019

CCCCNC(=O)NS(=O)(=O)c1ccc(C)cc1
inactive: [1] 0.0859 | [2] 0.0898 | [7] 0.061 | [8] 0.0489 | [3] 0.148 | [4] 0.184 | [13] 0.107 | [14] 0.162

O=C(O)c1cc(-c2ccc(F)cc2F)ccc1O
inactive: [1] 0.035 | [2] 0.0141 | [3] 0.119 | [4] 0.189

CC(=O)[C@H]1CC[C@H]2[C@@H]3C[C@H](C)C4=CC(=O)CC[C@]4(C)[C@H]3[C@@H](O)C[C@]12C
inactive: [1] 0.0813 | [2] 0.0205 | [3] 0.139 | [4] 0.0447

COC(=O)c1c(C)cc(O)cc1O
inactive: [1] 0.114 | [2] 0.0656 | [3] 0.151 | [4] 0.171

CCCS(=O)(=O)Nc1ccc(F)c(C(=O)c2c[nH]c3ncc(-c4ccc(Cl)cc4)cc23)c1F
active: [19] -0.179
inactive: [5] 0.0151 | [6] 0.0756 | [9] -0.0936 | [10] 0.103 | [11] -0.131 | [12] 0.105 | [15] -0.159 | [16] 0.126 | [17] -0.177 | [18] 0.106 | [20] 0.0931

COc1ccc(-c2cc(=O)c3c(O)cc(O[C@@H]4O[C@H](CO[C@@H]5O[C@@H](C)[C@H](O)[C@@H](O)[C@H]5O)[C@@H](O)[C@H](O)[C@H]4O)cc3o2)cc1O
active: [1] -0.0892 | [3] -0.0968

CC=C(C)C(=O)OC1[C@@H]2C=C3C4CC(=O)O[C@@H](c5ccoc5)[C@]4(C)CCC3[C@@](C)(C2=O)[C@@H](C(O)C(=O)OC)C1(C)C (stereo partly drawn)
inactive: [1] 0.075 | [2] -0.00745 | [3] 0.149 | [4] 0.0968

COC(=O)C[C@H]1C(C)(C)[C@@H](O)[C@@H]2CC3=C4CC(O)O[C@@H](c5ccoc5)[C@]4(C)CCC3[C@@]1(C)C2=O (stereo partly drawn)
inactive: [1] 0.0392 | [2] 0.101 | [3] 0.068 | [4] 0.138
